# Laboratory results: PubChem BioAssay AID2546 (National Center for Advancing Translational Sciences (NCATS), 2010)
# Screen size: about 310,000 compounds; about 11,000 (3.5%) were called active. The shares of active, inactive and inconclusive entries below differ from those in the screen. Calls follow the shape of the dose curve; as a rule, active = well fitted inhibition curve with a large enough effect; inconclusive = small, poorly fitted or top-dose-only effect, or effect the other way; inactive = flat fitted curve, though single readings scatter. Potencies of inconclusive entries are left out as doubtful fits.
# Assay: VP16 counterscreen qHTS for inhibitors of ROR gamma transcriptional activity;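 also: Gal4-VP16 expression switched on by copper sulfate through the metallothionein promoter; nearly all actives have a fitted effect of over 50% in size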
# Conditions: Drosophila S2 Gal4-VP16 UAS-luciferase, luminescence, 20 h; activity, negative = inhibition: at 53.6 µM (top of the series)
# % is scaled to controls: 0 for no effect and ±100 for the full control effect; potency is read from the fitted curve at half-maximal effect; tags tell the direction and shape of the fitted curve.
SMILES,"activity, negative = inhibition",Potency
Cc1nonc1-c1ccc2c(c1)OCO2,inactive: 2.79%,–
CCc1cc(C(=O)Nc2ncccc2O)sc1C,–,active: 10 µM
CN1CCN(CCCNC(=O)c2ccc(/C=C3/Sc4ccccc4N(Cc4cccc(Cl)c4)C3=O)cc2)CC1,–,"inconclusive [inhibitor, single point]"
N#Cc1c(NCc2ccccc2)ccnc1NCc1cccnc1,–,active: 10 µM
O=C(Nc1ccc(Br)cn1)c1ccc(Cl)s1,–,"inconclusive [activator, full curve, poor fit]"
CSc1nsc(SCc2ccc(Cl)cc2)n1,inactive: 14.7%,–
Cc1ccc(-n2c(-c3ccccc3)c[nH]c2=S)cc1,–,active: 6.31 µM
CCOC(=O)C1=C(C)N=C2c3ccccc3C(=O)C2C1c1ccc(Br)cc1 (stereo not given),–,"inconclusive [inhibitor, single point]"
COc1ccc(CN(C(=O)Cn2nnc(-c3ccc(C)o3)n2)C(C(=O)NCC2CCCO2)c2ccco2)cc1 (stereo not given),–,active: 7.08 µM
O=C(Nc1nc(-c2ccc(Cl)cc2)cs1)C1CCCO1 (stereo not given),inactive: -1.56%,–
COC(=O)c1sc(S(=O)(=O)NCc2cccs2)c(C(=O)OC)c1C,–,"inconclusive [inhibitor, single point]"
CCN(CC)CCC(c1ccc(N(C)C)cc1)c1c(OC)cc(OC)c2ccc(=O)oc12 (stereo not given),inactive: -4.63%,–
COc1ccc(CCN(C)CCCOc2ccc(S(=O)(=O)c3[nH]c4ccccc4c3C(C)C)cc2)cc1OC,–,active: 17.8 µM
CCOC(=O)NC(c1ccc(C(C)C)cc1)C(Cl)(Cl)Cl (stereo not given),–,"inconclusive [inhibitor, single point]"
Cc1ccc2ccc(S(=O)(=O)NCc3ccccn3)cc2c1,–,"inconclusive [inhibitor, single point]"
CCCCn1c(CNC(=O)C23CC4CC(CC(C4)C2)C3)nnc1SC(C)CC (stereo not given),–,"inconclusive [inhibitor, single point]"
Cc1c(-c2ccc(Cl)cc2)oc(=O)c2c(N)n(-c3ccccc3)nc12,–,"inconclusive [inhibitor, partial curve]"
CCc1ccccc1NC(=O)CCc1nc(-c2ccc(C)cc2)no1,–,"inconclusive [inhibitor, single point]"
O=C(Nc1ccccc1)N1CCC2(CC1)CCN(C(=O)c1cnccn1)CC2,–,"inconclusive [activator, single point]"
CCC(=O)Nc1ccc(-c2nc3ccccc3c(=O)o2)cc1,–,active: 15.8 µM
CC(C)c1nnc(NC(=O)c2cnccn2)s1,–,"inconclusive [inhibitor, single point]"
Cc1ccc(S(=O)(=O)N2CCN(c3cnn(-c4ccccc4)c(=O)c3Cl)CC2)cc1,inactive: -1.08%,–
Cc1ccccc1CNC(=O)CCn1nc(C)c2c(C)n(-c3ccccc3)nc2c1=O,inactive: -4.43%,–
Cc1cc(NC(=S)Nc2cccnc2)ccc1Br,–,"inconclusive [inhibitor, single point]"
CC(C)C1Cc2c(C#N)c(N)n(C)c(=S)c2CO1 (stereo not given),inactive: -10.6%,–

SMILES,"activity, negative = inhibition",Potency
CCN(C(=O)Cc1c(C(=O)O)n(CC)c2ccccc12)c1ccccc1C,–,"inconclusive [activator, single point]"
O=C(Nc1ccccc1)C1=C[C@@H](c2ccc(Br)cc2)C[C@@H](OCCCCO)O1,–,active: 7.08 µM
CN(c1ccccc1)S(=O)(=O)c1ccc(C(=O)Nc2nccs2)cc1,–,"inconclusive [inhibitor, single point]"
Cn1nccc1C(=O)Nc1sc2c(c1C#N)CCCC2,–,"inconclusive [activator, partial curve]"
Cc1cc(C(=O)CN2C(=O)c3ccccc3S2(=O)=O)c(C)n1-c1ccccc1,–,active: 11.2 µM
COc1ccc(S(=O)(=O)Nc2ccc(F)c(Cl)c2)cc1OC,–,active: 7.08 µM
CCOc1cc(NC(=S)NCCCOC)c(OCC)cc1NC(=O)c1cccs1,–,"inconclusive [inhibitor, single point]"
CCOC(=O)C1=NOC(CN(c2ccccc2)S(=O)(=O)c2ccc(Cl)cc2)C1 (stereo not given),inactive: -15%,–
CC(CCc1ccccc1)NC(=O)CCCCCNc1nc(=S)[nH]c2ccccc12 (stereo not given),–,"inconclusive [inhibitor, single point]"
O=C(NCCCCCCOC1=NS(=O)(=O)c2ccccc21)C(=O)Nc1ccccc1,–,"inconclusive [inhibitor, single point]"
O=C(c1ccccc1F)N(Cc1ccccc1)Cc1ccccc1,inactive: 5.22%,–
O=C(Nc1nc2ccccc2[nH]1)c1ccccc1OC(F)F,–,active: 10 µM
CCOC(=O)C1CCN(C(=S)Nc2cc(C)ccc2C)CC1,–,"inconclusive [inhibitor, single point]"
Cc1ccccc1CNC(=O)C1CCCN(c2nnc(C)c3c(C)n(-c4ccccc4)nc23)C1 (stereo not given),–,"inconclusive [inhibitor, partial curve]"
C/C(=N\Nc1nc2ccccc2[nH]1)c1ccc(Cl)s1,–,active: 2.82 µM
CC(=O)N1CCC[C@@]2(CCN(c3ncccn3)C2)C1,inactive: -12.8%,–
Cc1sc2nc3n(c(=O)c2c1C)Cc1ccccc1-3,–,"inconclusive [inhibitor, partial curve]"
S=C1NC2(CCCCC2)Cc2ccccc21,–,"inconclusive [inhibitor, single point]"
COc1ccc(-n2c(-c3ccccc3)nc(=S)c3c2CCCC3)cc1,–,"inconclusive [inhibitor, single point]"
COc1ccc(NC(=O)/C(C#N)=C/c2ccc(-c3ccc(Cl)c(C(=O)O)c3)o2)cc1,–,"inconclusive [inhibitor, partial curve]"
C=CCn1c(-c2ccccc2OC)n[nH]c1=S,–,"inconclusive [inhibitor, single point]"
CC(=O)NC(NC(=S)Nc1ccc(N=Nc2ccccc2)cc1)C(Cl)(Cl)Cl (stereo not given),–,active: 5.01 µM
Brc1ccc(-c2cn3c(n2)SCC3)cc1,–,"inconclusive [inhibitor, partial curve]"
CC(C)(C)c1ccc(OCC(=O)NNC(=S)NC(=O)c2ccco2)c(Br)c1,–,active: 8.91 µM
CCn1cc(C(=O)NCc2ccco2)c(=O)c2cc(S(=O)(=O)N3CCCCCC3)ccc21,–,"inconclusive [inhibitor, single point]"

SMILES,"activity, negative = inhibition",Potency
O=C(O)c1cc(N/N=C/c2ccc3c(c2)OCCO3)ccc1Cl,–,active: 11.2 µM
COc1cc(/C=C2/SC(=O)N(Cc3ccccc3Cl)C2=O)ccc1OCc1ccncc1,inactive: -0.608%,–
O=C1c2ccccc2C(=O)c2cc(S(=O)(=O)Nc3cccc4cccnc34)ccc21,inactive: -92.8%,–
Cc1ccc(NCC(=O)N/N=C\c2ccc[nH]2)cc1,–,"inconclusive [inhibitor, partial curve, poor fit]"
O=C(Nc1nnc(-c2ccco2)o1)c1ccc(Cl)cc1,–,active: 0.631 µM
NC(=O)c1cc(S(=O)(=O)N2CCN(c3ccc([N+](=O)[O-])cc3)CC2)cs1,–,"inconclusive [inhibitor, single point]"
CCOC(=O)C1(Cc2ccccc2C(F)(F)F)CCN(C(=O)c2cc(C(C)=O)n[nH]2)CC1,–,"inconclusive [activator, single point]"
CNC(=S)NNC(=O)c1ccccc1Br,–,"inconclusive [inhibitor, single point]"
CCCCNC(=S)Nc1ccc(Cl)cc1,–,"inconclusive [inhibitor, single point]"
O=C(N/N=C/c1cccc2ccccc12)c1cccc(F)c1,–,"inconclusive [inhibitor, single point]"
Cc1cccc(C)c1NC(=O)CCCSc1nnc(-c2ccc(F)cc2)n1-c1ccccc1,inactive: 1.67%,–
Cc1cccc2c(C(=O)N3CCN(c4ccccn4)CC3)cc(-c3cccc(Br)c3)nc12,–,"inconclusive [inhibitor, single point]"
COc1ccc(Nc2nnc(Cc3ccncc3)c3ccccc23)c(OC)c1,inactive: -1.09%,–
COC(=O)c1ccc(NC(=S)NCCc2cccc(C)c2)cc1,–,active: 1.26 µM
Cc1[nH][nH]c(=O)c1C(c1ccccc1[N+](=O)[O-])C(C#N)C#N (stereo not given),–,"inconclusive [inhibitor, single point]"
COC(=O)c1ccc(C(NC(=O)OCc2ccccc2)/C(C)=C/[C@@H](C)C(=O)NCc2cc(F)cc(F)c2)cc1 (stereo not given in full),inactive: -4.55%,–
CCOC(=O)C1CCCN(c2ncnc3c2oc2ccccc23)C1 (stereo not given),–,"inconclusive [inhibitor, single point]"
CCN(Cc1ccccc1)C(=O)CN1C(=S)NC(C)(C)CC1C (stereo not given),–,"inconclusive [inhibitor, single point]"
CC1CCN(Cc2nnnn2-c2cccc([N+](=O)[O-])c2)CC1,–,"inconclusive [inhibitor, full curve, poor fit]"
COc1cc2nc(N3CCN(c4cc(C)ccc4C)CC3)nc(N)c2cc1OC,–,active: 15.8 µM
N#C/C(=C\c1ccc(OCc2ccc(F)cc2)cc1)C(=O)Nc1cccc(C(=O)O)c1,inactive: -8.77%,–
O=C(CCN1C(=O)c2cccc3cccc(c23)C1=O)NCC1CCCO1 (stereo not given),inactive: -0.497%,–
COc1ccc(/C(N)=N/OC(=O)c2ccco2)cc1,–,active: 10 µM
COC(=O)CSc1nnc(SCc2ccc(OC)cc2)s1,–,"inconclusive [inhibitor, partial curve]"
C/C(=N\Nc1cc(Cl)nc(C)n1)c1ccc(Cl)c(Cl)c1,–,"inconclusive [inhibitor, single point]"
